Legend:
[1] = aggregation in solution by gel filtration and UV/Vis spectroscopy; assay type: physicochemical; conditions: Figures S10.1.1, S10.1.2
chymotrypsin = chymotrypsin proteolytic stability assay; assay type: in vitro ADME; conditions: Figure 5d
LDH leakage assay = assay type: cell-based; conditions: Figure S9.1.1
MDM2 = MDM2 (Homo sapiens, UniProt Q00987); assay: thermal shift in OCI/AML-2 cell lysate; assay type: binding; conditions: OCI/AML-2 lysate, Figure 5b
Sequence of UniProt Q00987 (Q00987 whole entry): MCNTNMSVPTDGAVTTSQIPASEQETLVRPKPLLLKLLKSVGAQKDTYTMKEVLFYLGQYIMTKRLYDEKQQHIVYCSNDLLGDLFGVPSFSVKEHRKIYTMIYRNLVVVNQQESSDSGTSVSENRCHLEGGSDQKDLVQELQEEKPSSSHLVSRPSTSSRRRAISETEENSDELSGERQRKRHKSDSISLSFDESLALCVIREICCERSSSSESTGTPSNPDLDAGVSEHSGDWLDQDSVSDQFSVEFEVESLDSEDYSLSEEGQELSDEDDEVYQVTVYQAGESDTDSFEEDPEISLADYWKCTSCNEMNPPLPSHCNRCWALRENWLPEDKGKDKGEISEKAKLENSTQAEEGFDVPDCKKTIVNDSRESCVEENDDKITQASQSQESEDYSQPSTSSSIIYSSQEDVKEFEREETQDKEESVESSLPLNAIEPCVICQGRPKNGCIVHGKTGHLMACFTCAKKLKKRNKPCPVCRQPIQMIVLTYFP

stabilization of MDM2 in thermal shift (MDM2)	SMILES	aggregation in solution [1]	proteolytic stability (chymotrypsin)	non-specific toxicity (LDH leakage assay)
–	CC(=O)N[C@@H](CC(C)C)C(=O)N[C@H](C(=O)N[C@@H](Cc1ccccc1)C(=O)N[C@H]1CCCn2nnc3c2-c2ccccc2-c2nnn(c2-c2ccccc2-3)CCC[C@@H](C(=O)N[C@@H](CO)C(=O)N[C@@H](C)C(=O)N[C@@H](C)C(N)=O)NC(=O)[C@H](CC(C)C)NC(=O)[C@H](CCC(N)=O)NC(=O)[C@H](C)NC(=O)[C@H](Cc2c[nH]c3ccccc23)NC(=O)[C@H](Cc2ccc(O)cc2)NC(=O)[C@H](CCC(=O)O)NC1=O)[C@@H](C)O [E1]	not observed to aggregate	significantly improved proteolytic stability	did not exhibit non-specific toxicity
increased stabilization of MDM2	COc1ccc(C2=N[C@@H](c3ccc(Cl)cc3)[C@@H](c3ccc(Cl)cc3)N2C(=O)N2CCNC(=O)C2)c(OC(C)C)c1 [Nutlin-3, reference compound]	–	–	–

Reference: article PMC5868729 (Angewandte Chemie (International ed. in English), 2015)
